Among all 360,000 compounds or so, about 17,000 (4.7%) were called active. The inconclusive results got no clear call from the source; some entries with a clear call stand among them for comparison. No stated cut-off is given here; in the data, active means activity change below about -50%; inconclusive means mostly about -30% to -49%; inactive means weaker than that.
Assay: qHTS for Inhibitors of Inflammasome Signaling: IL-1-beta AlphaLISA Primary Screen
Conditions: THP-1 LPS/ATP IL-1B secretion, 16 h; at 57.5 µM, stronger effect = lower value
Summary of the method: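 Secreted IL-1B measured by AlphaLISA bead assay after 16 h compound exposure of THP-1 cells; compounds (final up to 57.5 uM) added 1 h before LPS (250 ng/mL) and ATP (1.25 mM) stimulation; lower signal means less secretion.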
On the % scale 0 is the no-effect control and ±100 the full control effect.

Activity change, inactive:
Nc1ccccc1-c1ccn[nH]1 11.6%
O=C(O)c1ccc(N2CC3CC(C2)c2cccc(=O)n2C3)c(NC(=S)Nc2ccc(Cl)cc2Cl)c1 (stereo unspecified) 22.5%
O=C(c1cccs1)N(Cc1ccc(Cl)cc1)C1CCS(=O)(=O)C1 (stereo unspecified) 62%
C[C@@H]1CN([C@@H](C)CO)C(=O)CCCn2nncc2CO[C@H]1CN(C)C(=O)Nc1cccc(Oc2ccccn2)c1 -0.792%
Cn1nc(C(=O)Nc2cc(Cl)ccc2N2CCCC2)c2ccccc2c1=O 30.4%
O=C(NCc1ccccc1)C1CCN(S(=O)(=O)c2ccc(N3CCCC3=O)cc2)CC1 -21.2%
Cc1cc(C)nc(SCc2ccc(C(=O)N/N=C3\CC(C)CC(C)(C)C3)cc2)n1 (stereo unspecified) -10.9%
c1ccc(-c2cc(CSc3nc4ccccc4[nH]3)on2)cc1 49.9%
CCN(CC)S(=O)(=O)c1ccc(N2CCCC2)c(NC(=O)C2=COCCO2)c1 -1.36%
COc1cc(/C=N/NC(=O)c2cccc(S(=O)(=O)N3CCCC3)c2)cc(OC)c1O -2.16%
COc1ccc(-c2oc3ccc(N4CCOCC4)cc3c2/C=C/c2ccc(OC)c(OC)c2)cc1 5.49%
CN(CC(=O)Nc1ccc(F)cc1)C(=O)c1ccc2ccccc2n1 12.6%
CCc1nc2c(OCc3cc(Cl)cc(Cl)c3)cccn2c1N(C)C(=O)CC(C)C -28.1%
CC1CCCCC1NCC(=O)NCc1ccc(F)cc1 (stereo unspecified) -16.5%
CCCN(Cc1nnc(-c2ccccc2Cl)o1)C(=O)c1cc([N+](=O)[O-])cc([N+](=O)[O-])c1 -7.84%
COc1cc(NC(=O)C/C(C)=N/NC(=O)C(=O)NCCO)c(OC)cc1Cl 3.9%
C/C(CCc1oc2c(Br)cc(Br)cc2c1-c1ccc(C)o1)=N\O 10.7%
CCOC(=O)N1CCN(C(=O)CSCC(=O)Nc2nc(-c3ccc(C)cc3)cs2)CC1 5.73%
O=C(Cn1cnc2cc([N+](=O)[O-])ccc2c1=O)Nc1ccc(Br)cc1 -3.37%
COc1ccc(-c2csc(NC(=O)CSc3ccc(Br)cc3)n2)c(OC)c1 -1.09%
COc1cccc(C(=O)Nc2cccc(C(=O)N3CCOCC3)c2)c1 6.02%

Activity change, active:
Cc1ccc(Cl)cc1N1CCN(C(=O)COc2ccc3c(c2)CCC3)CC1 -72.3%
O=C(NC(=S)Nc1ccc(N2CCN(C(=O)c3ccccc3)CC2)cc1)c1cccs1 -59.5%
COc1ccc2[nH]c(=O)c3c(c2c1)OC(C)(C)C=C3 -106%
COc1ccc(-c2ccc(SCC(=O)NCc3ccc4c(c3)OCO4)nn2)cc1OC -94.9%
COc1cc2c(cc1OC)C(C)N(CCc1ccc(Cl)cc1)CC2 (stereo unspecified) -58.8%
COC(=O)c1ccccc1S(=O)(=O)Oc1ccc(-c2ccc(C(=O)O)cc2)cc1 -99.2%
O=C(Nc1cccc(NC(=O)c2cccs2)c1)c1ccc(F)cc1 -61%
O=C1C=C(c2ccccc2)C(=O)N1Nc1ccccc1 -101%
CCCN(CCC)CCN1C(=O)C2C(C(=O)Nc3cccc(SC)c3)C3C=CC2(O3)C1C(=O)NC1CCCCC1 (stereo unspecified) -56.3%
c1cc(Nc2cccc3nccnc23)c2nccnc2c1 -54.1%
Nn1c(Cc2cccc3ccccc23)nnc1SCc1ccc(Cl)c(Cl)c1 -71.7%
COc1ccc(C(=O)Nc2ccc(Cl)c(S(=O)(=O)N3CCOCC3)c2)cc1 -75%
COCCNC(=O)c1cc2c(s1)-c1ccc(Cl)cc1SC2 -57.2%
CN(C)c1ccc(NC(=O)CSc2nc3ccccc3c(=O)n2C2CCCCC2)cc1 -50.9%
CCCCOc1ccc(Cc2cnc(N)nc2N)cc1 -54.8%
Cc1cc2[nH]c3c(c[n+](C)c4ccccc34)c2cc1C -98.6%
Cc1cc(C)c(C(CC(=O)c2cccs2)C(C#N)C#N)c(C)c1 (stereo unspecified) -105%

Activity change, inconclusive:
Cc1cccc(Nc2nc(N)c([N+](=O)[O-])c(N3CCN(C)CC3)n2)c1 -45.5%
Nc1nc(CSc2nnnn2-c2ccccc2)nc(N2CCCc3ccccc32)n1 -30.7%
COC(=O)C1=C(C)NC(=O)/C1=C\c1cc(C)n(-c2cccc(C)c2)c1C -50%
CC(=O)Nc1ccc(-c2ccnc3c2CC(C)(C(=O)Nc2cccc(C(C)=O)c2)O3)cc1 (stereo unspecified) -33.9%
O=C(Nc1ccncc1)c1ccccc1F -37.7%
CCOCc1c(C(=O)N2CCN(CCOc3ccc(Cl)cc3)CC2)oc2ccccc12 -36.1%
CC(C)c1ccc2c(c1)C(N1CCN(C)CC1)Cc1cccnc1S2 (stereo unspecified) -46.2%
CCCN1CCN(CCCNC(=O)CN2C(=O)c3cccnc3Oc3ccc(Cl)cc32)CC1 -42.6%
CCN(Cc1ccccc1)C(=O)c1[nH]c2ccc(OC)cc2c1C -49.6%
COc1ccc(NC(=O)Nc2nc(C(N)CC(C)C)cs2)cc1 (stereo unspecified) -38.9%
Cc1ccc(C)n1-c1cccc(S(=O)(=O)N2CCOCC2)c1 -49.4%
COc1cc2c(C#N)c(N3CCCCC3)nc(N)c2c(N)n1 -49.8%
O=C(OCc1ccccc1)N1CCC2CC1c1cc(N3CCNCC3)ccc12 (stereo unspecified) -40.5%
Cc1ccc(NC(=O)c2ccco2)cc1 -43.8%
Nc1ccc(/C=C/c2ccc3ncccc3c2)cc1 -41.9%
Cc1cnc(NC(=O)CCN2C(=O)C3CCCCC3C2=O)s1 (stereo unspecified) -35.7%
O=C(CSCc1nc2ccccc2[nH]1)Nc1ccc(Oc2ccccc2)cc1 -43.3%
OC(c1cc(Cl)cc(Cl)c1)c1ncc(-c2cccc(F)c2)[nH]1 (stereo unspecified) -38.2%
COc1cc(NS(=O)(=O)c2ccc(NC(=S)NC(=O)/C=C/c3ccc(OC)c(OC)c3)cc2)ncn1 -37.3%
CCCC(=O)N(CCN1CCOCC1)c1nc2ccc(OCC)cc2s1 -47.6%
CCN(CC(=O)Nc1cccc(OC)c1)CC(=O)Nc1cccc2ccccc12 -41.6%
CCc1ccc(-c2cc(C)no2)cc1S(=O)(=O)NCCN1CCC(C)CC1 -44.1%
CCOc1ccc(N=c2scc(-c3ccc(OC)cc3)n2CCO)cc1 -30.9%
CC(=O)Oc1ccc(C(=O)Nc2cccc(-c3nnc(-c4ccco4)o3)c2)cc1 -39.5%
COc1c(O)ccc2c1CN1CCc3cc4c(cc3C1C2)OCO4 (stereo unspecified) -35.1%
O=C(Nc1ccc(Nc2ccccc2)cc1)C(Cl)(Cl)Cl -38.5%
COc1ccc(C(=O)Nc2c3c(nn2-c2ccc(Cl)cc2)CS(=O)(=O)C3)cc1 -34.3%
CC(C)C[C@H]1CN([C@@H](CC(C)C)CN2CCC[C@@H]2CN2C(=O)C(=O)NC[C@@H]2Cc2ccccc2)C(=O)C(=O)N1CC1CCCCC1 -42.1%
O=C(c1ccco1)N1CCN(c2nc(C(F)(F)F)nc3c2nnn3Cc2ccccc2)CC1 -46.2%
CCCC/C(O)=C1\C(=O)CC(C)(C)CC1=Nc1ccc(OC)cc1 -32.8%
Nc1ccc(-c2nc3ncccc3o2)c(Cl)c1 -44.4%
Cc1ccc(C(=O)Nc2c3c(nn2-c2ccccc2)CS(=O)(=O)C3)cc1C -38.2%
C/C=C/C(=O)OCC(=O)Nc1ccc(C)c(S(=O)(=O)N(C)C)c1 -30%
COC(=O)c1sc(NC(=O)c2ccc([N+](=O)[O-])o2)c(C#N)c1C -33.8%
Cc1[nH]nc2c1C(c1ccsc1C)C(C#N)=C(N)O2 (stereo unspecified) -32.2%
Cn1c(-c2ccccc2)cnc1SCC(=O)N1CCCc2ccccc21 -31.9%
CC(=O)c1ccc(NC(=S)NC2CCCC(C)C2C)cc1 (stereo unspecified) -47.5%
CC(=O)Nc1cccc(NC(=O)c2ccc3c(c2)CCN3S(=O)(=O)c2ccccc2)c1 -48.3%
COC(=O)c1c(NC(=O)C2COc3ccccc3O2)sc2c1CCN(C(=O)OC)C2 (stereo unspecified) -30.9%
Cc1cccc(CCNC(=O)CNS(=O)(=O)c2ccc3nc(C)sc3c2)c1 -45.3%
C/C(=N\OC(=O)Nc1ccc(Cl)cc1)c1ncc(C(F)(F)F)cc1N1CCOCC1 -47%
Cn1cccc1/C=C1\CCC/C(=C\c2cccn2C)C1=O -40.1%
CCN1C(=O)/C(=C\C=C2/C=CC=CN2CC)SC1=S -44.8%
Cc1ccc2c(c1)N(C)/C(=C/c1cccc[n+]1CCO)S2 -31%
COc1cc(O)c(C(CCN2CCCC2)c2ccc3c(c2)OCO3)c(OC)c1 (stereo unspecified) -41.3%
O=C(CC1SC(=Nc2ccccc2)N(CCCO)C1=O)Nc1ccc(Cl)cc1 (stereo unspecified) -32.8%
COC(=O)[C@@]12C[C@@H](CC(=O)NCc3cccs3)C(=O)N(Cc3ccco3)C1=CCC(C)(C)C2 -48.8%
Nc1ccc(C(=O)N/N=C/c2cn(Cc3ccc(F)cc3)c3ccccc23)cc1 -48.3%
